Results published in PubChem BioAssay AID434955 (Southern Research Specialized Biocontainment Screening …, 2010).
The other results are listed elsewhere or left out. Further columns of the screen follow, without active or inactive calls. Most of these compounds were active or inconclusive in the main read-out, so they are no random draw.

test: beta-lactam sensitization of Mtb H37Rv, H37Rv (AID 434955);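 note: growth measured after seven days incubation then overnight dye step; 0% = bacteria only wells and 100% = bacteria with antibiotic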; settings: M. tuberculosis H37Rv growth with meropenem, percent inhibition; measured here: primary screen without meropenem; at 25 µM

SMILES | inhibition [%]
CCOC(=O)c1ccc(NC(=S)N(CCCN(CC)CC)Cc2ccco2)cc1 | -5.17
COc1cccc(CN(C)C(=O)CC2C(=O)NCCN2C2Cc3ccccc3C2)c1 (configuration not stated) | 2.26
O=C(Nc1ccnn1C1CCN(C/C=C/c2ccccc2)CC1)c1ccccc1Cl | 4.2
Cc1ccc(S(=O)(=O)N(CC(=O)N(C(C)C)C(C)C)C(=O)N2CCN(C)CC2)cc1 | -8.76
CC(C)C(=O)Nc1ccc2c3c(cccc13)CC2 | 20.1
O=C(Nc1nnc(-c2ccco2)o1)c1ccc(S(=O)(=O)N2CCOCC2)cc1 | 14.1
COc1ccc2oc(=O)c(-c3nc(C)cs3)cc2c1 | -1.49
O=c1c2cc(N3CCOCC3)ccc2[nH]c(=S)n1Cc1ccco1 | -6.51
NNC(=S)NC1CC2CC1C1C=CCC21 (configuration not stated) | 17.2
Cc1ccccc1OCC(=O)NCC(=O)OCC(=O)c1ccc([N+](=O)[O-])cc1 | 2.15
COc1ccc(F)cc1S(=O)(=O)N1CC(C)CC(C)C1 (configuration not stated) | 3.1
Cc1ccc(OCC(=O)N/N=C\c2c(C)n(C)c3ccccc23)c([N+](=O)[O-])c1 | -12.1
COc1ccc(N(CC(=O)Nc2ccccc2C(=O)N2CCCC2)S(=O)(=O)c2ccccc2)cc1 | 3.17
Cc1cc(=O)n2c(-c3ccccc3C)n[nH]c2n1 | 24.3
NNc1nc2c(Cl)cccc2s1 | 19.5
COc1cc(C(=O)Oc2ccccc2/C=N/NC(=O)c2ccc(C)c(Cl)c2)cc(OC)c1OC | -4.28
CC(C)CCN1CC(O)=C(c2nc3ccccc3[nH]2)C1=N | 16.1
COc1ccccc1OCC(=O)NCC1CCCN(C(=O)c2ccccc2C(C)=O)C1 (configuration not stated) | -3.51
O=C(CN1CCN(c2ccc(F)cc2)CC1)Nc1ccccc1C(=O)NCCc1ccccc1 | 81.5
CCCCCn1c(=O)[nH]c2cc(C(=O)NCc3ccco3)ccc2c1=O | 7.77
CCC(=O)N1C(C(=O)O)CSC1c1ccc(OC)cc1 (configuration not stated) | 1.16
Nc1c(S(=O)(=O)c2cccs2)c2nc3ccccc3nc2n1CC1CCCO1 (configuration not stated) | 6.64

SMILES | inhibition [%]
COc1ccc([N+](=O)[O-])cc1NC(=O)C1CCCNC1=O (configuration not stated) | 1.96
CC(C)n1cc(CN2CCC(Oc3ccc(C(=O)N4CCCC4)cc3)CC2)cn1 | 3.95
COC(=O)c1sc(-c2ccc(Cl)cc2)cc1NC(=O)COCC(=O)O | 36.4
COc1ccc(C(=O)N(C)Cc2ccc(C)o2)cc1OC1CCN(C(C)=O)CC1 | -1.9
COCCCN1C(=O)c2ccccc2C1C(=O)NC1CCCCCC1 (configuration not stated) | -10.3
NCCS | 7.24
COc1cc([C@@H]2c3cc4c(cc3[C@@H](O)[C@@H](CO)[C@@H]2CO)OCO4)cc(OC)c1O[Si](C)(C)C(C)(C)C | 29.2
CCCC(=O)N(Cc1cc(=O)[nH]c2ccccc12)c1ccccc1C | 1.01
CC1(C)CC(=O)c2sc(NS(=O)(=O)c3ccc([N+](=O)[O-])cc3)nc2C1 | -0.39
COc1ccccc1N1CCN(C2CCCN(S(=O)(=O)c3cccc(Cl)c3)C2)CC1 (configuration not stated) | 3.63
COc1ccc(Cl)cc1NC(=O)C1CCCN(c2cc(C)nc3ncnn23)C1 (configuration not stated) | -6.41
Cc1ccc(NC(=O)Nc2cccs2)nc1 | -0.29
O=C(c1ccccc1NS(=O)(=O)c1ccccc1[N+](=O)[O-])N1CCCC1 | 3.86
CSc1ccccc1C(=O)Nc1ccc2c(c1)OCCO2 | 18.1
CC(=O)c1c(OC(=O)c2cccc(Cl)c2)c2ccccc2n1C | 45.6
CC(=O)N1CCc2cc(Br)cc(S(=O)(=O)N3CCC(C(=O)O)CC3)c21 | -8.79
CCCC(=O)N(c1ccc(OCC)cc1)S(=O)(=O)c1ccc2c3c(cccc13)C(=O)N2C | -0.3
Cc1ccc2c(c1)N(CC(=O)N1CCCCCC1)C(=O)c1cccnc1O2 | 2.83
COc1ccccc1NC(=O)Cn1c(=O)n(C)c(=O)c2sc3c(c21)COC(C)(C)C3 | 9.37
Cc1cccc(C(=O)N2CCC(N3CCC(C(=O)N4CCOCC4)CC3)CC2)c1 | -6.83
COc1ccc2nc(NCCCNC(=O)c3cc(OC)c(OC)c(OC)c3)c(C#N)cc2c1 | -6.73
O=C(CN(Cc1ccco1)C(=O)c1cccc(Cl)c1)Nc1c(Cl)cc(Cl)cc1Cl | 2.32

SMILES | inhibition [%]
N/C(=N\OC(=O)CC1CCCCC1)c1ccc(Cl)cc1 | 5.52
CCc1ccc2c(c1)C(=O)C(=O)N2CCS(=O)(=O)c1ccccc1 | -1.45
O=C(Nc1nnc(-c2ccccc2SCc2ccccc2F)s1)Nc1ccccc1F | 3.24
CCOc1ccccc1NC(=O)c1oc2ccccc2c1NC(=O)C1CC1 | 10.3
CC(=O)c1ccc(C(=O)N2CCCC(Nc3ccccc3)C2)s1 (configuration not stated) | -4.41
CCn1ncc(Cl)c1C(=O)NC(=S)Nc1ccccc1Br | 7.39
O=C(Cc1ccc(F)cc1)N/N=C/c1ccncc1 | -5.43
CC12CCC(C/C1=N\N=C1\NC(=O)/C(=C\c3cccc(Br)c3)S1)C2(C)C (configuration not stated) | 21.6
COc1nc(N/N=C/c2ccccc2F)nc(N2CCCCC2)n1 | 10.4
CC(C)N1CCc2c(sc(NC(=O)CCS(=O)(=O)c3ccccc3)c2C(N)=O)C1 | -1.07
COc1cc(C(=O)NCc2nc(C)cs2)ccc1OC1CCN(C(C)=O)CC1 | -3.64
O=C(c1ccc(Br)o1)N1N=C(c2ccc(Cl)cc2)CC1c1ccco1 (configuration not stated) | -0.02
O=C(COC(=O)C1CC1)NCc1ccccc1Cl | 34.2
O=C1CCCN1CN(C(=O)c1ccc2c(c1)OCO2)c1ccc(F)cc1 | 4.55
COc1ccc(/C(N)=N/OC(=O)CC2CCCCC2)cc1 | -1.28
COc1ccccc1OCC(=O)N1CCCC(Nc2ccc(C)c(C)c2)C1 (configuration not stated) | 1.81
COc1cc(OC)cc(C(=O)Nc2nnc(SCC(=O)NCC3CCCO3)s2)c1 (configuration not stated) | -0.49
COc1cccc(NC(=O)Cn2c(=O)n(C)c(=O)c3sc4c(c32)COC(C)(C)C4)c1 | 0.81
Cc1ccc(-n2nnnc2Sc2nc([N+](=O)[O-])nn2C)c(C)c1 | 36.1
Cc1nc2c(C(=O)NCc3ccc4c(c3)OCO4)c[nH]n2c(=O)c1Cc1ccccc1F | 8.34
CCCCC(CC)CNC(=O)CCS(=O)(=O)c1cccc2nsnc12 (configuration not stated) | -2.54
O=C(Nc1ccnn1C1CCN(C2CCC2)CC1)c1ccccc1 | -0.89

SMILES | inhibition [%]
O=C(NCc1ccccc1Cl)C1CCC(=O)N(C2CC2)C1 (configuration not stated) | -10.3
Nc1nonc1C(=O)NCCNCc1cc(Br)ccc1OCc1ccccc1F | 14.5
O=C(c1cnccn1)N(Cc1ccco1)C1(C(=O)NC2CCCC2)CCCCC1 | -0.62
CSCCC(NC(=O)C1CCC(C)CC1)C(=O)NCc1ccco1 (configuration not stated) | -7.36
O=C(CN1C(=O)COc2ccc(Cl)cc21)N1CCc2ccccc21 | -0.45
CC(=O)Nc1ccc(S(=O)(=O)NCCN2CCNC2=O)cc1Cl | 2.83
Cc1ccc(-c2onc(C)c2C)cc1S(=O)(=O)N1CC(C)Oc2ccccc21 (configuration not stated) | 2.41
CCOc1cc(CO)c(Br)cc1OCC(=O)O | 0.7
CSc1ccccc1OCc1cc(C(=O)NCCn2nc(C)cc2C)no1 | 0.49
Cc1oc2cc3oc(=O)c(CCC(=O)N[C@H](C(=O)O)C(C)C)c(C)c3cc2c1C | 14.6
O=[N+]([O-])c1cccc(/C=N/n2cnnc2)c1O | 9.89
O=C(CCC1CCN(C(=O)c2ccco2)CC1)NCc1ccc(F)cc1 | -3.51
Nc1nc(C2C(=O)CCCC2=O)cs1 | 5.56
Cc1ccc(C(=O)N2CCC(C(=O)Nc3cccc([N+](=O)[O-])c3)CC2)cc1 | -6.7
COc1cc(Br)cc(/C=N/NC(=O)Cc2ccc(C(F)(F)F)cc2[N+](=O)[O-])c1O | -0.46
O=C(CSc1nnc(-c2ccncc2)o1)c1cccc([N+](=O)[O-])c1 | 41.8
Cc1cccc(Cn2c(N(C)CCO)nc3c2c(=O)[nH]c(=O)n3C)c1 | -1.51
C=C(C)CNC(=S)N/N=C(\C)c1ccc(-n2ccnc2)cc1 | 50.1
CCOC(=O)c1[nH]c(C)c(C(=O)Nc2ccc(F)cc2)c1C | -1
O=C(Nc1sc2c(c1C(=O)NC1CC1)CCCCCC2)c1ccco1 | -5.06
COc1ccc(N2C(=O)NC(=O)/C(=C\c3cn(CC(=O)N4CCOCC4)c4ccccc34)C2=O)c(OC)c1 | -8.14
COc1ccc(C(=O)Nc2nc3ccccc3s2)c(OC)c1 | 33.6

SMILES | inhibition [%]
Cc1cc2[nH]c(=O)c(=O)[nH]c2cc1S(=O)(=O)N1CCC(C)CC1 | -17.6
Cn1c(=O)n(CCc2ccccc2)c(=O)c2c1ncn2Cc1ccccc1 | 7.03
CCOC(=O)CC1(NC(=O)c2cc(COc3cncc(Cl)c3)on2)CCCCC1 | 7.96
O=C(c1ccc(-n2c(SCc3cc(F)ccc3F)nc3ccccc3c2=O)cc1)N1CCOCC1 | 25
O=c1oc(-c2cccs2)nc2sc3c(c12)CCC3 | 13.5
CCOC(=O)c1ccc(N2CN(CCc3ccccc3)CNC2=S)cc1 | 33.2
COc1cc(NC(=O)c2ccccc2)c(OC)cc1NC(=O)CN1CCOCC1 | 41.5
CN(C)CCCN1C(=O)c2oc3ccccc3c(=O)c2C1c1cccs1 (configuration not stated) | -2.83
O=C(O)CCN1C(=O)/C(=C\c2ccc(-c3nc4ccccc4s3)o2)SC1=S | -8.52
COc1ccc(C(=O)Nn2c(SCC(=O)NCc3ccccc3)nc3ccccc3c2=O)cc1 | -11.9
CCC(=O)/C=C1\Sc2ccc(OC)cc2N1CC | 2.23
O=C(CCCCCN1C(=O)c2cccc([N+](=O)[O-])c2C1=O)Nc1ccccc1F | 50
O=C1Nc2ccccc2N(O)N1c1cc(-c2cccc(Cl)c2)no1 | 4.15
CCn1c(CSc2nc3ccccc3[nH]2)n[nH]c1=S | -3.29
CC(C)c1ccc(/C=C(\NC(=O)c2ccccc2)C(=O)NCCCn2ccnc2)cc1 | 7.23
Cc1cc(N(CN2CCCC2=O)C(=O)c2ccc(F)cc2)no1 | -10.2
O=C(Nc1ccc(Cl)cc1)ON=C1CCCC1 | -10.9
COc1ccccc1/C=C/CN1CCOCC1 | 1
CCOC(=O)c1cccc(NC(=O)CSc2nnc(COc3ccccc3)n2CC)c1 | 40.9
